Laboratory results: the supplement of paper PMC3334620
In all, about 33,000 sequences were measured (“E-score (-0.5 to 0.5)”: median about -0.016, highest 2% from about 0.31 on). The list shows a part of the results.

molecular target: Cst6 (UniProt P40535); test: PBM E-score (8-mer binding enrichment) (E-score (-0.5 to 0.5)); higher = stronger / more preferred TF binding; most listed sequences are background and not binding sites; details: protein concentration: 200 nM; construct: GST-DNA-binding domain
Procedure, shortened: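 Yeast transcription factors carrying a GST tag, as full-length proteins or DNA-binding domains, were produced by PURExpress in vitro transcription/translation. About 100-200 nM protein was applied to universal all-10-mer Agilent arrays, double-stranded by primer extension on fresh or once-stripped slides. Bound protein was detected with fluorescent anti-GST, and scans were normalised with masliner. The Universal PBM Analysis Suite gave each ungapped eight-base word, pooled with its reverse complement, an E-score, a modified Wilcoxon-Mann-Whitney statistic.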

Sequence | PBM E-score
TAAACCAA | 0.134
ATTTACTC | 0.153
AGCGTAAT | 0.257
AGGTCGGA | -0.136
TGCTTAAA | 0.118
GCCCTTCA | -0.123
CATGTATC | 0.141
CGGTATCA | 0.0799
CCAACGGG | -0.134
GACGTCCC | 0.016
AGAACATG | 0.116
GGCTGTGA | 0.043
GAGCAACC | -0.0196
ATTAGACG | 0.0574
ATTGAATA | 0.305
CGAACGGC | 0.258
ATTATGAG | 0.22
ATCCACAG | -0.0393
AGTAGGGG | -0.19
AGTCTTCA | -0.0551
AACGAGGC | 0.104
AAAGTTGT | 0.213
GATTGCCA | -0.0693
AACCAAAT | 0.0907
CTGCGTTA | -0.204

Sequence | PBM E-score
GCATGACA | 0.288
ATAGACAT | -0.124
CTTCGGCC | -0.0647
GGAGACCC | -0.212
GGGCAGAC | -0.221
CACCGGCC | -0.202
CTCACTGA | 0.105
AATCGGCA | 0.197
CAAAAGAG | -0.0312
GGCAGTGA | 0.13
AAAAGTTA | 0.229
ACTTTCGA | 0.0179
GCGTACGC | -0.121
ATAACAAG | 0.208
AAAGGTAA | -0.0156
CCTACAGG | -0.294
TCTTTCCA | 0.0838
CCAGCCCG | -0.363
CTCCGGAA | -0.272
GACTACGC | -0.181
ACTATCCG | 0.0433
ATATTTGG | 0.223
CGATGGAC | -0.0932
AATTCAAC | 0.183
GGCCGCAC | 0.0605

Sequence | PBM E-score
GATGTAAA | 0.236
TCGTAACA | 0.129
AATCCCGT | 0.127
GGAAAAGA | 0.0532
ATTACGGA | 0.154
AGGATCTA | -0.231
CCCTTAGC | -0.274
CGTTAAAC | 0.0283
CACTAAAA | 0.14
TATGATCA | 0.207
AGAGGTAA | -0.119
GATCCGAA | -0.00888
ATGGAACA | -0.153
AGGGAAAC | -0.148
CCTATGGC | -0.219
AAACGGTC | 0.0592
AGAATGGG | -0.159
GGCCGAAA | 0.0221
CTCCTTGC | -0.172
AACGAAGA | 0.0604
AAGATCGG | -0.154
GCGGTAAC | 0.0406
AAAACGTG | 0.0168
GCCGCGCA | 0.226
ACTCAGGA | 0.0346

Sequence | PBM E-score
ATGCCGAG | -0.0097
CCGGCTCA | -0.0972
TGGTTACA | 0.0864
ATACCTTC | -0.0872
ACCAGAAG | 0.0353
ACAGACTA | 0.00847
GTAAATTA | 0.202
CAGGCCGC | -0.119
ACCTTCAG | -0.0786
ATTCCAAT | 0.152
AAGGCGCG | 0.111
ATGCAATC | 0.208
ATGGACTA | -0.0656
CGTATGAA | 0.319
CTTCTTTA | 0.106
CACACGAA | 0.161
AAACCCGC | 0.00185
CACCTTGG | -0.2
ACGTGGGC | 0.049
GCAGGCTA | -0.377
CTGCCGGA | -0.089
ATTTCCGG | 0.00232
GTGTGGCA | 0.0683
ATCTTCAG | 0.13
AAATTGGT | 0.186

Sequence | PBM E-score
AACCGAAT | 0.112
ATCTGTCA | 0.121
CTCGATTC | -0.0536
GCAAGTAA | 0.0157
ATGGCTTC | -0.0679
ACTGAGAC | -0.0531
ATTACGCC | 0.254
AAATATCC | 0.101
ACGCCGAC | 0.0423
CGGGTGGA | -0.178
TCGGTTAA | 0.0115
CTGCGAGC | -0.0539
CTGCCGGC | -0.276
GTGGAACA | 0.033
AACTACTT | 0.0798
CAAGCGGG | -0.239
GGGGTCAC | -0.214
AGAAATTA | 0.272
AGAGGAGA | -0.248
CAACGAAC | 0.0576
CACAGGTA | 0.0773
CTACCTAC | -0.0461
TAGATTGA | 0.213
CCATATCG | -0.0338
ACTAAGCC | -0.0814

Sequence | PBM E-score
ACCCTTCA | -0.156
CCTTATAG | -0.0102
TCTCCCCA | -0.262
ATGCCGGA | -0.121
GGCCGGTA | 0.00332
TAAGGGTA | -0.07
CAATAACC | 0.136
GAAACAGA | 0.169
TACCCACA | -0.0986
GGAGCAGA | -0.114
AGAAGGTC | -0.089
GAGGTGGA | -0.204
GCCGAGGA | -0.0119
ACCGAAGG | -0.0936
AGAAGTAT | 0.229
CGCGTAGA | -0.202
AGCACGGG | -0.201
CATACCTA | -0.0413
CAATAGAG | 0.0512
ACGTGCCG | 0.112
TCGTGACA | 0.189
CCCCCGGG | -0.278
CTGGAAAA | 0.121
CTGCGGAC | -0.114
CTAGTTAA | 0.0732

Sequence | PBM E-score
AACTCGGC | 0.0742
GGGTCCAC | -0.353
ACTGCAGA | -0.0111
ACCACAGC | -0.202
CCTCGTCG | -0.0925
CAGGGGTC | -0.25
TGGAGCCA | -0.23
AGATAGGC | -0.0122
TACTAAGA | 0.0381
AAGACTGG | -0.0781
CGACAGAG | -0.315
CGAGTCCG | -0.126
ATGATTCC | 0.152
GAGTCGAA | 0.0113
GGCGCGTA | -0.0745
GATATTCC | 0.121
CCCCCCTA | -0.346
CGCATATA | 0.0594
TATGCACA | -0.0713
ACTTTACC | 0.0757
TGGGATAA | 0.00606
TCCTAGGA | -0.186
